# Laboratory results as given in the supplement of paper PMC8728848.
# This is one part of the list.
# B1: HML-Native (Hypnea musciformis), P84871 (protein)
# chain: QKFCTLDIAPVCCQIVIGGGMYTAGNACMCEGFVSGVGRCENPKECPCTREAQIPSCCSSRWGLVSVTGKCACDCLGGTVAFPEPCPSPY
# What was measured:
# Assay in all cases: glycan array binding signal (z-score within array); higher = stronger binding
# Details in all cases: glycan notation: IUPAC condensed, linker removed
# GalNAc(b1-4)GlcNAc = molecular target: GalNAc(b1-4)GlcNAc
# Method in brief: (§1)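 From the Consortium for Functional Glycomics database, 3228 arrays were curated, keeping only those whose protein sequence was available. Binding is given as a within-array Z-score averaged across arrays sharing a protein sequence and across linkers. Negative Z-scores can be read as non-binding.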
# [1] = molecular target: GalNAc(b1-4)GlcNAc(b1-2)Man
# Method in brief: as §1
# [2] = molecular target: GalNAc(b1-4)GlcNAc(b1-2)Man(a1-3)[GalNAc(b1-4)GlcNAc(b1-2)Man(a1-6)]Man(b1-4)GlcNAc(b1-4)GlcNAc
# Method in brief: as §1
# [3] = molecular target: GalNAc(b1-4)GlcNAc(b1-3)GalNAc(b1-4)GlcNAc
# Method in brief: as §1
# GalNAc(b1-4)GlcNAc6S = molecular target: GalNAc(b1-4)GlcNAc6S
# Method in brief: as §1
# GalNAc(b1-6)GalNAc = molecular target: GalNAc(b1-6)GalNAc
# Method in brief: as §1
# GalNAc3S(b1-4)GlcNAc = molecular target: GalNAc3S(b1-4)GlcNAc
# Method in brief: as §1
# GalNAc3S(b1-4)GlcNAc3S = molecular target: GalNAc3S(b1-4)GlcNAc3S
# Method in brief: as §1
# [4] = molecular target: GalNAc3S(b1-4)[Fuc(a1-3)]GlcNAc
# Method in brief: as §1
# GalNAc4S6S(b1-4)GlcNAc = molecular target: GalNAc4S6S(b1-4)GlcNAc
# Method in brief: as §1
# GalNAc6S(b1-4)GlcNAc = molecular target: GalNAc6S(b1-4)GlcNAc
# Method in brief: as §1
# Glc(a1-4)Glc = molecular target: Glc(a1-4)Glc
# Method in brief: as §1
# [5] = molecular target: Glc(a1-4)Glc(a1-4)Glc(a1-4)Glc
# Method in brief: as §1
# Glc(a1-6)Glc(a1-6)Glc = molecular target: Glc(a1-6)Glc(a1-6)Glc
# Method in brief: as §1
# [6] = molecular target: Glc(a1-6)Glc(a1-6)Glc(a1-6)Glc
# Method in brief: as §1
# Glc(b1-4)Glc = molecular target: Glc(b1-4)Glc
# Method in brief: as §1
# Glc(b1-6)Glc = molecular target: Glc(b1-6)Glc
# Method in brief: as §1
# GlcA(b1-3)Gal = molecular target: GlcA(b1-3)Gal
# Method in brief: as §1
# GlcA(b1-3)GlcNAc = molecular target: GlcA(b1-3)GlcNAc
# Method in brief: as §1
# GlcA(b1-6)Gal = molecular target: GlcA(b1-6)Gal
# Method in brief: as §1
# [7] = molecular target: GlcA3S(b1-3)Gal(b1-4)GlcNAc(b1-2)Man
# Method in brief: as §1
# [8] = molecular target: GlcA3S(b1-3)Gal(b1-4)GlcNAc(b1-3)Gal(b1-4)Glc
# Method in brief: as §1
# [9] = molecular target: GlcNAc(a1-3)Gal(b1-4)GlcNAc
# Method in brief: as §1
# [10] = molecular target: GlcNAc(a1-4)Gal(b1-3)GlcNAc
# Method in brief: as §1
# [11] = molecular target: GlcNAc(a1-4)Gal(b1-4)GalNAc
# Method in brief: as §1
# [12] = molecular target: GlcNAc(a1-4)Gal(b1-4)GlcNAc
# Method in brief: as §1
# [13] = molecular target: GlcNAc(a1-4)Gal(b1-4)GlcNAc(b1-3)Gal(b1-4)Glc
# Method in brief: as §1
# [14] = molecular target: GlcNAc(a1-4)Gal(b1-4)GlcNAc(b1-3)Gal(b1-4)GlcNAc
# Method in brief: as §1
# [15] = molecular target: GlcNAc(a1-4)Gal(b1-4)GlcNAc(b1-3)Gal(b1-4)GlcNAc(b1-3)Gal(b1-4)GlcNAc
# Method in brief: as §1
# [16] = molecular target: GlcNAc(a1-4)Gal(b1-4)GlcNAc(b1-3)Gal(b1-4)[Fuc(a1-3)]GlcNAc(b1-3)Gal(b1-4)[Fuc(a1-3)]GlcNAc
# Method in brief: as §1
# [17] = molecular target: GlcNAc(a1-6)Gal(b1-4)GlcNAc
# Method in brief: as §1
# [18] = molecular target: GlcNAc(b1-2)Gal(b1-3)GalNAc
# Method in brief: as §1
# [19] = molecular target: GlcNAc(b1-2)Man(a1-3)[GlcNAc(b1-2)Man(a1-6)]Man(b1-4)GlcNAc(b1-4)GlcNAc
# Method in brief: as §1
# [20] = molecular target: GlcNAc(b1-2)Man(a1-3)[GlcNAc(b1-2)Man(a1-6)]Man(b1-4)GlcNAc(b1-4)[Fuc(a1-6)]GlcNAc
# Method in brief: as §1
# [21] = molecular target: GlcNAc(b1-2)Man(a1-3)[GlcNAc(b1-4)][GlcNAc(b1-2)Man(a1-6)]Man(b1-4)GlcNAc(b1-4)GlcNAc
# Method in brief: as §1
# [22] = molecular target: GlcNAc(b1-2)Man(a1-3)[GlcNAc(b1-4)][GlcNAc(b1-2)Man(a1-6)]Man(b1-4)GlcNAc(b1-4)[Fuc(a1-6)]GlcNAc
# Method in brief: as §1
# [23] = molecular target: GlcNAc(b1-2)[GlcNAc(b1-4)]Man(a1-3)[GlcNAc(b1-2)Man(a1-6)]Man(b1-4)GlcNAc(b1-4)GlcNAc
# Method in brief: as §1
# [24] = molecular target: GlcNAc(b1-2)[GlcNAc(b1-4)]Man(a1-3)[GlcNAc(b1-4)][GlcNAc(b1-2)Man(a1-6)]Man(b1-4)GlcNAc(b1-4)GlcNAc
# Method in brief: as §1
# [25] = molecular target: GlcNAc(b1-2)[GlcNAc(b1-4)]Man(a1-3)[GlcNAc(b1-4)][GlcNAc(b1-2)[GlcNAc(b1-6)]Man(a1-6)]Man(b1-4)GlcNAc(b1-4)GlcNAc
# Method in brief: as §1
# [26] = molecular target: GlcNAc(b1-2)[GlcNAc(b1-4)]Man(a1-3)[GlcNAc(b1-4)][GlcNAc(b1-2)[GlcNAc(b1-6)]Man(a1-6)]Man(b1-4)GlcNAc(b1-4)[Fuc(a1-6)]GlcNAc
# Method in brief: as §1
# [27] = molecular target: GlcNAc(b1-2)[GlcNAc(b1-6)]Man(a1-6)[GlcNAc(b1-2)Man(a1-3)]Man(b1-4)GlcNAc(b1-4)GlcNAc
# Method in brief: as §1
# [28] = molecular target: GlcNAc(b1-2)[GlcNAc(b1-6)]Man(a1-6)[GlcNAc(b1-2)Man(a1-3)]Man(b1-4)GlcNAc(b1-4)[Fuc(a1-6)]GlcNAc
# Method in brief: as §1
# [29] = molecular target: GlcNAc(b1-2)[GlcNAc(b1-6)]Man(a1-6)[GlcNAc(b1-4)][GlcNAc(b1-2)Man(a1-3)]Man(b1-4)GlcNAc(b1-4)GlcNAc
# Method in brief: as §1
# GlcNAc(b1-3)Fuc = molecular target: GlcNAc(b1-3)Fuc
# Method in brief: as §1
# GlcNAc(b1-3)Gal = molecular target: GlcNAc(b1-3)Gal
# Method in brief: as §1
binder,measurement,setting,value
B1,glycan array binding signal (z-score),GalNAc(b1-4)GlcNAc,-0.077
same,glycan array binding signal (z-score),[1],-0.213
same,glycan array binding signal (z-score),[2],-0.076
same,glycan array binding signal (z-score),[3],-0.287
same,glycan array binding signal (z-score),GalNAc(b1-4)GlcNAc6S,-0.291
same,glycan array binding signal (z-score),GalNAc(b1-6)GalNAc,-0.284
same,glycan array binding signal (z-score),GalNAc3S(b1-4)GlcNAc,-0.283
same,glycan array binding signal (z-score),GalNAc3S(b1-4)GlcNAc3S,-0.155
same,glycan array binding signal (z-score),[4],-0.195
same,glycan array binding signal (z-score),GalNAc4S6S(b1-4)GlcNAc,-0.333
same,glycan array binding signal (z-score),GalNAc6S(b1-4)GlcNAc,-0.196
same,glycan array binding signal (z-score),Glc(a1-4)Glc,-0.274
same,glycan array binding signal (z-score),[5],-0.157
same,glycan array binding signal (z-score),Glc(a1-6)Glc(a1-6)Glc,-0.272
same,glycan array binding signal (z-score),[6],-0.231
same,glycan array binding signal (z-score),Glc(b1-4)Glc,-0.277
same,glycan array binding signal (z-score),Glc(b1-6)Glc,-0.246
same,glycan array binding signal (z-score),GlcA(b1-3)Gal,-0.329
same,glycan array binding signal (z-score),GlcA(b1-3)GlcNAc,-0.124
same,glycan array binding signal (z-score),GlcA(b1-6)Gal,-0.241
same,glycan array binding signal (z-score),[7],-0.332
same,glycan array binding signal (z-score),[8],-0.269
same,glycan array binding signal (z-score),[9],-0.291
same,glycan array binding signal (z-score),[10],-0.295
same,glycan array binding signal (z-score),[11],-0.24
same,glycan array binding signal (z-score),[12],-0.285
same,glycan array binding signal (z-score),[13],-0.368
same,glycan array binding signal (z-score),[14],-0.304
same,glycan array binding signal (z-score),[15],-0.236
same,glycan array binding signal (z-score),[16],0.641
same,glycan array binding signal (z-score),[17],-0.291
same,glycan array binding signal (z-score),[18],-0.145
same,glycan array binding signal (z-score),[19],-0.073
same,glycan array binding signal (z-score),[20],3.07
same,glycan array binding signal (z-score),[21],-0.309
same,glycan array binding signal (z-score),[22],1.58
same,glycan array binding signal (z-score),[23],-0.307
same,glycan array binding signal (z-score),[24],-0.383
same,glycan array binding signal (z-score),[25],-0.263
same,glycan array binding signal (z-score),[26],-0.07
same,glycan array binding signal (z-score),[27],-0.293
same,glycan array binding signal (z-score),[28],4.99
same,glycan array binding signal (z-score),[29],-0.369
same,glycan array binding signal (z-score),GlcNAc(b1-3)Fuc,-0.11
same,glycan array binding signal (z-score),GlcNAc(b1-3)Gal,-0.269
